Measurements published in PubChem BioAssay AID485344 (National Center for Advancing Translational Sciences (NCATS), 2010).
Among all 340,000 compounds or so, about 6,900 (2%) were called active. No stated cut-off is given here; in the data, active means inhibition above about 30%; inactive means below that, where a call was filed. Only a part is listed here, and it is no random draw. Entries without a call were filed so in the source.

These compounds were tested against D(2) dopamine receptor (Homo sapiens) (UniProt P14416) (assay: HTS Assay for Allosteric Antagonists of the Human D2 Dopamine Receptor: Primary Screen for Antagonists). Conditions: HEK293 TREx D2 cells, calcium flux, dopamine EC80; at 10 µM; stronger effect = higher value.
Summary of the method: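 Dopamine at EC80 is the agonist stimulus; test compounds precede it by 180 s. Calcium flux read kinetically in a force-coupled, inducible HEK293 T-REx D2 cell line.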
Further: 0% is about no effect.

Sequence of UniProt P14416 (P14416 whole entry, looked up): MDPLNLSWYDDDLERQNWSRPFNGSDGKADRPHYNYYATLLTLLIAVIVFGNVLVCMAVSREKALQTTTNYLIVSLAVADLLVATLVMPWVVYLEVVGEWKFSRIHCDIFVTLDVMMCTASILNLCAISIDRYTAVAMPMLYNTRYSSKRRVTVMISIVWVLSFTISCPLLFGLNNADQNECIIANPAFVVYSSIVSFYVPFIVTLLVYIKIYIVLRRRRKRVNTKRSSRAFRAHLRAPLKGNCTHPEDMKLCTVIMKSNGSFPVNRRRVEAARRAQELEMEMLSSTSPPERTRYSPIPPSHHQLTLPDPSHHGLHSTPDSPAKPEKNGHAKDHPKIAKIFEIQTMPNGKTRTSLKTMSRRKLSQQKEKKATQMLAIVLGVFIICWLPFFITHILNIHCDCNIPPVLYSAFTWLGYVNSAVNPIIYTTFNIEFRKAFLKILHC

SMILES | inhibition
CS(=O)(=O)N(Cc1ccccc1)c1ccc(C(=O)NCC2CCCO2)cc1 (stereo unspecified) | active: 32.8%
COc1ccccc1NC(=O)N(Cc1ccco1)C1CCN(C(C)=O)CC1 | 4.63%
CCCCCn1c(=O)[nH]c2cc(C(=O)NCc3ccc(C)cc3)ccc2c1=O | 3.94%
CCN1CCN(C(=O)Nc2ccc(OC)cc2OC)CC1 | active: 48.8%
NC(=O)CC(NC(=O)c1cccc(Br)c1)c1ccc(NCC2CC2)c([N+](=O)[O-])c1 (stereo unspecified) | active: 37.7%
CCOc1ccc(CCNC(=O)C2=C(C)C(=O)OC23CCC(C)CC3)cc1OCC (stereo unspecified) | 7.28%
COc1cccc(NC(=O)CSc2nc(-c3ccccc3)nc3c2Cc2cc(Cl)ccc2O3)c1 | 0.134%
Cc1ccc(C(=O)c2oc3ccccc3c2NC(=O)c2nc(S(C)(=O)=O)ncc2Cl)cc1F | 7.57%
Cc1ccc(NC(=O)c2ccc3nc(Cc4ccccc4)oc3c2)cc1F | -11.6%
CCCCN(C)CCNC(=O)Cn1ncc2c3ccccc3n(CCC)c2c1=O | -19.1%
COc1ccc(C)cc1N(C)C(=O)c1sc2nc3n(c(=O)c2c1C)CCCCC3 | 5.17%
Cc1cccc(-c2noc(CN(C(=O)c3ccc(C)c(C)c3)C(C)C)n2)c1 | 2.57%
Cc1ccc(NC(=O)c2ncn(-c3ccccc3)n2)c(Cl)c1 | 2.67%
Cc1csc2nc(-c3cccc(NC(=O)c4cccc(F)c4)c3)cn12 | -19%
CC1CCCCN1C(=O)CSc1nnc(-c2cccc(Cl)c2)o1 (stereo unspecified) | 11.7%
Cc1ccc(Cl)cc1NC(=O)/C(C#N)=C/c1c(C)n(Cc2ccccc2)c2ccccc12 | -2.26%
Fc1ccc(-c2csc(-c3nc(-c4ccc(Br)s4)cs3)n2)cc1 | -6.08%
C1CNCCNCCCNCCNC1 | active: 46.3%
CCOc1ccc(NC(=O)CCCN2C(=O)C(c3ccccc3)Oc3cccnc32)cc1 (stereo unspecified) | 4.66%
Cc1ccc(-n2ncc(C(=O)NCc3cccs3)c2C2CCN(C(=O)OC(C)(C)C)CC2)cc1C | 7.9%
Cc1cccc(C2N3CC4(C(C)C)CN2CC(C(C)C)(C3)C4=O)c1 (stereo unspecified) | 12.8%
CCOc1ccc(-c2cc3c(=O)n(CC(=O)Nc4c(C)cccc4C)ccn3n2)cc1 | 8.83%
Cc1ccc2[nH]c(CSc3nnc(NC(=O)COc4ccccc4F)s3)cc(=O)c2c1 | 1.24%
Cc1cccc(Cn2c(CNS(=O)(=O)c3ccc(Cl)s3)nc3cccnc32)c1 | 9.74%

SMILES | inhibition
Cn1c(=O)oc2cc(S(=O)(=O)NCCC(=O)Nc3ccc(F)c(Cl)c3)ccc21 | -16%
CC(C)CN(CCNC(=O)c1cc(=O)[nH]c2ccc(S(=O)(=O)N3CCCCCC3)cc12)CC(C)C | 4.74%
CCc1ccc(CN(Cc2ccco2)C(=O)c2cc(-c3ccc(Cl)cc3)on2)cc1 | -7.54%
O=C(COC(=O)c1c(F)cccc1F)Nc1ccc2[nH]c(=O)[nH]c2c1 | active: 64.7%
COc1ccc2c(Sc3ccccc3)c(C(=O)NCCN(C)C)[nH]c2c1 | -17.8%
CCOc1ccc(-c2nonc2NC(=O)c2ccccc2C)cc1 | -7.54%
Cc1cc2c(cc1S(=O)(=O)Nc1cccc(C(F)(F)F)c1)OCCN2C | 4.45%
Cc1ccc(Cl)cc1NC(=O)NC1COc2ccccc2C1 (stereo unspecified) | -28%
CC(C)Oc1ccc(CNC(=O)Cc2ccc(NC(=O)N3CCSc4ncccc43)cc2)cc1 | 6.95%
Cc1ccc2c(c1)c(=O)c(S(=O)(=O)c1ccc(F)cc1)cn2CC(=O)Nc1ccc2c(c1)OCO2 | 1.92%
Fc1ccccc1N1CCN(CC2CC3C=CC2C3)CC1 (stereo unspecified) | active: 73.9%
O=C(Cc1ccc(Cl)cc1)Nc1ccc2oc(-c3ccccc3)nc2c1 | -5.76%
CC(C)(C)C1CCc2c(sc(NC(=O)c3ccccc3F)c2C(=O)N2CCCCC2)C1 (stereo unspecified) | 27.3%
CCOC(=O)N1CCC(Nc2c(Nc3ccc(C)c(C)c3)c(=O)c2=O)CC1 | active: 57%
CS(=O)(=O)c1ncc(N(Cc2ccccc2)Cc2ccco2)c(C(=O)Nc2cccc(C(F)(F)F)c2)n1 | 1.26%
CC(C)Cn1c(=O)c2sccc2n2c(CCCC(=O)Nc3ccc(Cl)cc3)nnc12 | 5.59%
CCOC(=O)c1c(NC(=O)c2cc(-c3ccccc3)on2)sc2c1CCCC2 | -4.34%
O=C(NCCc1ccc(Cl)cc1)c1ccc2nc(Cc3ccccc3)oc2c1 | 10.1%
O=C(CC1SC(N2CCCC2)=NC1=O)Nc1ccc(C(=O)NCCOc2ccccc2F)cc1 (stereo unspecified) | active: 52.1%
Cc1cc(C)c(NC(=O)CSc2nc(=O)n(Cc3ccco3)c3c2CCC3)c(C)c1 | 15.6%
COc1cccc(-c2nc(SCc3cc(=O)c4cc(Cl)ccc4[nH]3)n[nH]2)c1 | 9.66%
NC1=NC2(CCN(Cc3ccccc3)CC2)n2c(nc3ccccc32)N1 | active: 43.2%
Cc1cccc(N(CC(=O)NC(C)c2ccccc2)S(=O)(=O)c2ccccc2)c1C (stereo unspecified) | -9.28%
Cc1ccc(-c2nn3c(C)nnc3c3ccccc23)cc1S(=O)(=O)NCCO | 8.1%

SMILES | inhibition
CC(C)Cn1c(=O)c2ccccc2n2c(-c3ccc(Br)cc3)nnc12 | -12.5%
CCCCN(c1ccccc1)c1ncnc2c1cnn2-c1ccc(Cl)cc1 | 21.6%
COc1ccc(OC)c(CCNC(=O)CCn2c(=O)c3cccn3c3cccnc32)c1 | -7.98%
Cc1ccc(CN(Cc2ccco2)c2cnc(S(C)(=O)=O)nc2C(=O)Nc2ccc(Br)cc2)o1 | -5.95%
Cc1cc(C)cc(C(=O)Nc2cc(C(F)(F)F)ccc2N2CCN(c3ccccc3)CC2)c1 | -2.62%
CCN1C(=S)SC(=O)C1=C1C=C(C)OC(C)=C1 | active: 57.2%
Cc1ccccc1NC(=O)Cn1c(=O)n(Cc2ccc3c(c2)OCO3)c(=O)c2oc3ccccc3c21 | 17.5%
Cc1ccc(-c2cn3cccc(C)c3n2)cc1NS(=O)(=O)c1ccccc1 | 8.98%
CCN(Cc1ccc(OC)cc1)c1ccc(-c2nc(-c3ccncc3)no2)cc1[N+](=O)[O-] | 15.9%
CCC(=O)N1CCc2cc(S(=O)(=O)CCC(=O)N3CCN(c4cccc(C)c4)C(C)C3)ccc21 (stereo unspecified) | 10.5%
Cc1cc(C)c(Cn2c3ccccc3c3cnn(CC(=O)NCCCc4ccccc4)c(=O)c32)c(C)c1 | 4.92%
O=C(NCc1cccc(Cl)c1)c1cccn1-c1nnc(N2CCCC2)s1 | 0.804%
O=C(NCCc1ccccc1)c1ccc(Cn2c(SCc3ccc(F)cc3)nc3cccnc32)cc1 | -1.83%
COc1ccc(OC)c(S(=O)(=O)N2Cc3ccccc3CC2C(=O)Nc2ccc(C(C)=O)cc2)c1 (stereo unspecified) | -16.5%
CCn1c(=O)c(C(C)=O)nc2ccccc21 | active: 32.8%
CCc1ccc(-n2nc3ccc(NC(=O)c4cc5ccccc5o4)cc3n2)cc1 | 19%
Cc1ccc(CNC(=O)c2cn(C)c3ccc(S(=O)(=O)N(C)C4CCCCC4)cc3c2=O)cc1 | 4.55%
Cc1ccc(CNC(=O)c2nc(SCc3cccc(C)c3)ncc2Cl)cc1 | -0.966%
Cc1ccc(CN2CCN(CCC(C)C)C(CCO)C2)s1 (stereo unspecified) | active: 56.8%
CCOc1ccc(-c2cc3c(=O)n(Cc4nc(-c5cccc(OC)c5OC)oc4C)ccn3n2)cc1Cl | 9.7%
CCOc1ccc(CC(=O)NCCc2csc3nc(-c4ccccc4F)nn23)cc1 | 9.51%
Cc1noc(/C=C/N(C)C)c1S(=O)(=O)N1CCCC(C(=O)Nc2cccc(F)c2)C1 (stereo unspecified) | -4.6%
COc1ccccc1N1CCN(Cc2ccc(OC)c(OC)c2OC)CC1 | active: 80.8%
COc1ccc(CNC(=O)C(=O)NCC(c2ccc3c(c2)OCO3)N2CCOCC2)cc1 (stereo unspecified) | -11.7%

SMILES | inhibition
O=C1CC(c2ccccc2)Cc2[nH]c(=O)c(-c3nc(-c4cccc(Cl)c4)cs3)cc21 (stereo unspecified) | 3.45%
COc1ccc(-c2cc(C(=O)N3CCN(c4ccccc4OC)CC3)c3cc(C(C)C)ccc3n2)cc1 | 11.7%
Cc1ccc(Cl)cc1N1CCN(C(c2ccc(F)cc2)c2nnc(-c3ccccc3)o2)CC1 (stereo unspecified) | -5.71%
CCOC(=O)COn1c(-n2nc(C)cc2C)nc2ccccc2c1=O | active: 32.8%
O=C(CSc1n[nH]c(-c2ccccc2)n1)N1CCCCC1 | -12%
COC(=O)c1sccc1S(=O)(=O)N1CCN(c2cccc(C)c2C)CC1 | -14.7%
CCn1c(C)nc2c1C(=O)c1ccccc1C2=O | active: 34.8%
O=C(C[n+]1ccc2ccccc2c1)Nc1cc(C(F)(F)F)ccc1Cl | active: 53.7%
CCOc1ccc(CCNC(=O)CSc2cc(=O)n(C)c3ccccc23)cc1OCC | -13.9%
COc1ccc(Cc2nnc(SCC(=O)N(C)c3ccccc3)o2)cc1 | active: 66%
COc1ccc2nc(NS(=O)(=O)c3ccc(C)cc3)c(Nc3cc(Cl)ccc3OC)nc2c1 | -10.1%
Fc1ccc(-c2cc(-c3nc(-c4cccc(Cl)c4)no3)[nH]n2)cc1 | 3.6%
COc1cc(OC)c(OC)cc1CN1CCc2nc(N3CCN(c4ncccn4)CC3)ncc2C1 | -10%
COc1cc(OC)c2ccc(=O)oc2c1C(CCN1CCCC(C)C1)c1ccc2c(c1)OCO2 (stereo unspecified) | active: 83.5%
CCOC(=O)c1c(NC(=O)Nc2ccc(Cl)cc2)sc(C)c1C | active: 35.8%
COc1ccccc1CNC(=O)CSc1ncc2c(n1)-c1ccccc1N(Cc1ccc(C)cc1)S2(=O)=O | 3.77%
COc1ccc(-c2noc(C3CC(=O)N(c4ccc(C)c(F)c4)C3)n2)c(OC)c1 (stereo unspecified) | -6.32%
CCc1nnc(SCc2ccc(F)cc2Cl)c2cc3sccc3n12 | 13.6%
Cc1ccc(C)c(NC(=O)C(C)n2c(=O)cc(C(F)(F)F)c3c(C)nn(C)c32)c1 (stereo unspecified) | 0.623%
CC1CCC(NC(=O)c2ccc3c(c2)N(Cc2cccc(F)c2)C(=O)c2ccccc2S3)CC1 (stereo unspecified) | 3.4%
CCc1ccc(CNC(=O)c2ccc3c(c2)nc2n3CCOC2)cc1 | -9.57%
COc1ccc(NC(=O)C(=O)NCCc2ccccc2)cc1OC | -2.39%
CC(C)c1ccc(NC(=O)C2CCCN(S(=O)(=O)c3ccc(Br)s3)C2)cc1 (stereo unspecified) | 2.51%
COc1cccc(C(=O)Nc2ccccc2C(=O)OCc2cc(=O)n3nc(C)sc3n2)c1 | 11.7%
